Among the data in article PMC12136788 are binding signal values, retold here.

T1: UNK ZnF1-3 (human, UniProt Q9C0B0 31-174)
T1 sequence: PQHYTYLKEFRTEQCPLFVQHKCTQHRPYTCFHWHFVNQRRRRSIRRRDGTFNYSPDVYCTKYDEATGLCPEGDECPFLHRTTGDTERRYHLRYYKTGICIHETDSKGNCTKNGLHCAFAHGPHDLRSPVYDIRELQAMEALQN

B1: chr5:132203191:132203192:+_ENSG00000164405_ENST00000378667|hu_mus|motif|central (ssRNA)
RNA: GGGAGUUCUACAGUCCGACGAUCAUUCUUCCUUUUCGACUGCUCAAACUCCUGGUUGCCCCAUGUGUAGAUCAGGUAGACCACGGCAAACGGCGGCGCCACGCGCAGGAUGCGCUCGCGAGUGCGGCGCAGCACGUUGGGGAUCAACAGAGGAUUGAGCAUCA
B2: chr7:44244176:44244177:+_ENSG00000106636_ENST00000223369|hu_mus|hu_hu_hu_mus_False|58_58 (ssRNA)
RNA: GGGAGUUCUACAGUCCGACGAUCACUGUCGCUCCGGACGUAGACAUGGCAAAGAUACUCUUGUUCUUUGACAGAAGCUCUAGUGCCUUUCCCCGAGCGUUCCACAAUCAGUUGACUUGUAAAGGUCAUGAAUUCCUGCACACUCAACAGAGGAUUGAGCAUCA
B3: chr16:71807222:71807223:-_ENSG00000166747_ENST00000299980|perfect_dup|FALSE|FALSE (ssRNA)
RNA: GGGAGUUCUACAGUCCGACGAUCUCCCGCAAGAUCUCUGCACAUCUCCGAGGAGCCCAUGCAGCCGAGGGUACAAAGUGCUAGCCCCUGCACAAACUGCGUGCUAUGAUUAAGAUCAUUCUUGAUACAGUUGGUCAUGAGAAGCAACAGAGGAUUGAGCAUCA
B4: chr18:35833404:35833405:-_ENSMUSG00000024350_ENSMUST00000025208|mus_mus|FALSE|FALSE (ssRNA)
RNA: GGGAGUUCUACAGUCCGACGAUCCCUAGACAUAUGACCUAGGCCGACCACUCAUCCUCUCUGGCCAAUUCAUAAAAGGGCUAACAUACCGGUUUCACAAACUGUUAUGAGGAAUAAGUGAAAAAACAAAAUAAAACAGAACACCAACAGAGGAUUGAGCAUCA
B5: chr2:187370222:187370223:+_ENSG00000065548_ENST00000337859|hu_hu|motif|central (ssRNA)
RNA: GGGAGUUCUACAGUCCGACGAUCUUUCCUUUUCUUCCAGGCAAGAAAAGAUUCUAGAGUGAUUUUGGUAACAUUUGGACCGGGGGCAGAACGCUCUCUCUCAAUUAGAUCUUCUAAUGAAAUUUCAUCUUCUUUCUCUUCUUUCAACAGAGGAUUGAGCAUCA
B6: 85956359_85961431_155_3pUTR_ENSG00000074266_ENST00000351625|human|control|control (ssRNA)
RNA: GGGAGUUCUACAGUCCGACGAUCUUCCCCAACUUUUCCUUCCAGGUGCAUUUGGCGUGUUUGUAGGUGUAUCAGGGCGUUCAGUGUUUGUACCACUUUCUAUACUGACAGCGUCAUCAUUCUCGUCUCCAGAGAGGUCUGGAUCAACAGAGGAUUGAGCAUCA
B7: 168751867_168751987_1371_CDS_ENSMUSG00000027551_ENSMUST00000087971|mouse|control|control (ssRNA)
RNA: GGGAGUUCUACAGUCCGACGAUCGUGGCUGCGGAGCGAGUCCUCCCGCAUAAACGAGGCGUCACAGAUGUCGCAGUGGAACGUCUUCUUGGCAUCCAGCCUGGCCACCUGCCGGCUGCUCUGCCUGCCGCUCUCCUUCUUCUCCAACAGAGGAUUGAGCAUCA
B8: chr4:106721038:106721039:+_ENSMUSG00000061887_ENSMUST00000030367|mus_mus|motif|central (ssRNA)
RNA: GGGAGUUCUACAGUCCGACGAUCUUUCCUUUUUUUAAAGAAGAAAGCAAAGAGGUUGAUUGGGGUGGGGCAUAGGGCUUGCGGGAAGCUUCCAUUAAAAAAAAAAUUCCCCCAAAGAACACCCCCCACCCCGGGAAAAAAAAACAACAGAGGAUUGAGCAUCA
B9: chr2:219460011:219460012:+_ENSG00000144580_ENST00000542068|hu_hu|motif|central (ssRNA)
RNA: GGGAGUUCUACAGUCCGACGAUCAGCUAAUACUGCUCAAGUACAAUCAUGAAGACAGAUGGAGCUGCUGAAAUUCACACGGAAACAAAGAAAAGGAUCAAGUGGACUGUCACCUUAAUCCCAAGCACCUCCCUUUUAGAGUUACAACAGAGGAUUGAGCAUCA
B10: chr5:31552970:31552971:+_ENSG00000082213_ENST00000325366|hu_mus|FALSE|FALSE (ssRNA)
RNA: GGGAGUUCUACAGUCCGACGAUCCUGGAAGCCCAGAAACAAAAGCCGGGUCUGUCACUGCGCCAAACUGCACAGCAGCCUAGCACGGUCUCAGCUCAGAGGGGACUCUUCUGAGUACACCAGGUGAGUGUCCAGGGUCCCGUACAACAGAGGAUUGAGCAUCA
B11: chr3:19126987:19126988:-_ENSMUSG00000069094_ENSMUST00000091314|mus_mus|FALSE|FALSE (ssRNA)
RNA: GGGAGUUCUACAGUCCGACGAUCGAAUCUGCAUUGCCAACCACGCUGGAGUGAAAAGCUUCGUGUGGCGUCUGUGGUAAAUAAAUGCUCAGUCUCCAGGCACAGAGCAGAGCAGCAGGUGGGAGGCGAUGAUGACAUUGACAUCAACAGAGGAUUGAGCAUCA
B12: chr19:8913615:8913616:-_ENSMUSG00000071658_ENSMUST00000096259|mus_hu|mus_mus_mus_hu_False|58_58 (ssRNA)
RNA: GGGAGUUCUACAGUCCGACGAUCAGGGUACCAAAACCUUCUGCCUGAAAUGGGUGCCCCACCCAGUAGGGAGUUGCAGCUAAAAAUAUCUGAUGCAGAAGCAGUGACUAUACGAAAGGAGGCCCCUGGGGAGGGCCAGGCCAGCAACAGAGGAUUGAGCAUCA
B13: chr19:8913615:8913616:-_ENSMUSG00000071658_ENSMUST00000096259|mus_hu|mus_mus_mus_hu_False|58_68 (ssRNA)
RNA: B12 RNA with A67C, G68A, G72C, C76G
B14: 8408022_8408142_3574_CDS_ENSG00000133026_ENST00000269243|human|control|control (ssRNA)
RNA: GGGAGUUCUACAGUCCGACGAUCCUGGGCUGCCGUGGUGUCCAGCGUGUCCUCCAGCUCUGUUUUCAGAGCUUCCAGUUCCUCACUCAAGUCCCUUUUCUGCUUUUCGGCCUUGUUCCGUGAAGCCUUCUCGGAUUCAAAGUCCAACAGAGGAUUGAGCAUCA

Positions count from the first letter of the chain named. This is one part of the list.

The target in this assay is T1, UNK ZnF1-3. The assay is described as follows: nsRBNS (natural sequence RNA bind-n-seq); RBNS binding buffer (assumed for nsRBNS): 25 mM Tris pH 7.5, 150 mM KCl, 3 mM MgCl2, 0.01% Triton X-100, 500 ug/ml BSA, 20 U/ml SUPERase-In, 4 C; UNK is unkempt and MSI1 is Musashi-1; names of the RNAs are library labels; protein concentration not given here; high values mean tight binding.
Molecule B1 returned a binding signal of 0.872 enrichment R.

B2 registered a binding signal of 0.627 enrichment R. To B3 belongs 1.22 enrichment R; to B4, 0.918 enrichment R; to B5, 0.988 enrichment R. To B6 belongs 0.45 enrichment R. On to B7, for which the binding signal turned out to be 0.582 enrichment R.

In the case of B8, the binding signal came to 2.43 enrichment R. As to B9, the binding signal was 1.6 enrichment R. In the case of B10 it was 0.767 enrichment R; in that of B11, 1.09 enrichment R; in that of B12, 1.76 enrichment R. To B13 belongs 1.47 enrichment R; to B14, 0.277 enrichment R.
